Screen size: about 45,000 compounds; about 65 (0.1%) were called active. The call rests on the fitted dose curve; in most records, active means well fitted activation curve with a large enough effect; inconclusive means small, poorly fitted or top-dose-only effect; inactive means no such curve, though single readings can be large or run the other way. Some of the results follow.
The compounds below were run against Galactocerebrosidase (Homo sapiens) (UniProt P54803) (assay: A Novel Cell-Based Assay to Identify Small Molecules for B -Galactocerebrosidase). Settings: 145M-Twi-hGALC-G270D cells (Twitcher mouse brain line with human GALC G270D), HMU-beta-Gal fluorescence, 48 h; series mostly up to 57.5 µM; activation: at the top concentration.
How it was run: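 Live 145M-Twi cells (Twitcher mouse brain-derived, GALC-null) stably expressing human GALC-G270D, with a wild-type GALC line, were compound-treated. Residual GALC activity was then read as fluorescence from 0.1 mM final HMU-β-gal at pH 5.2; higher signal means activation.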
Further: 0% is about no effect; nearly all actives have a fitted effect of over 65% in size.

UniProt P54803, sequence (P54803 whole entry, looked up): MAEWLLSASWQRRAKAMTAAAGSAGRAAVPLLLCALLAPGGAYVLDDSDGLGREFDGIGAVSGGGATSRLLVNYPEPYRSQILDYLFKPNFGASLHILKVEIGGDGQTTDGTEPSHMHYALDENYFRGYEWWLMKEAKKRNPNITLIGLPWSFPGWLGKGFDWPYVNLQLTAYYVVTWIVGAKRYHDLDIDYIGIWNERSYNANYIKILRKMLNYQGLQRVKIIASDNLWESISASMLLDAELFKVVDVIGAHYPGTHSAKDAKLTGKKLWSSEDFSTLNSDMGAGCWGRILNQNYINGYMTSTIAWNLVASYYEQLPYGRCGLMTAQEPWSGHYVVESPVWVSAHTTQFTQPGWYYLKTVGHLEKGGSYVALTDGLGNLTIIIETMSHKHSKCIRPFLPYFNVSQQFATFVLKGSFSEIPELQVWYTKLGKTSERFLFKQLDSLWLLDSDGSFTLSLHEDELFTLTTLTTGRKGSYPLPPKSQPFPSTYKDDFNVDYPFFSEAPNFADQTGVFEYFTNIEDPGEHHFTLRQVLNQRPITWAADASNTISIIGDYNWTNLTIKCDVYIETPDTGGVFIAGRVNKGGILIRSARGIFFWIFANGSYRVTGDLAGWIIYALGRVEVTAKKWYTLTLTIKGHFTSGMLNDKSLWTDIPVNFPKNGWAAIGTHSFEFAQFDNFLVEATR

activation, inactive:
CCCC1=Nc2cc(C(=O)N3CCC(C(=O)OCC)CC3)ccc2Sc2ccccc21 -4.4%
COc1ccc(-n2c(SCC(=O)NCc3ccc(F)cc3)nc3c([nH]c4ccccc43)c2=O)cc1 -17.5%
O=C(CCSCc1cccc(Cl)c1)NCCc1ccc(Cl)cc1 -10.4%
CCc1ccc(C(=O)C(C)CN2CCCCC2)cc1 (stereo unspecified) -3.99%
O=C(c1ccccc1)N1CCc2cc(CNS(=O)(=O)c3ccc(Cl)s3)ccc21 -2.69%
CC(=O)Nc1cccc(NC(=O)Cn2cnc3c(oc4ccccc43)c2=O)c1 -16%
COc1ccccc1CNC(=O)CCCCn1c(=O)c2ccccc2n(Cc2ccccc2F)c1=O -2.49%
Cc1nn2cc(-c3ccc(OC(C)C)cc3)nc2s1 1.93%
Cn1c(=O)n(C)c2cc(N3CCOCC3)c(NS(=O)(=O)c3cccc(C#N)c3)cc21 -6.25%
Cc1oc(-c2ccc(Cl)cc2)nc1Cn1c(=O)cc(C)c2c(C)nn(-c3ccccc3)c21 -9.33%
Cc1cccc(-c2nc3c(cnn3-c3ccccc3)c(=O)n2-c2ccc(Cl)cc2)c1 -18.7%
Cc1ccc(-c2nc3c4c(-c5ccccc5)c(-c5ccccc5)oc4ncn3n2)cc1 -17.9%
Cc1ccc(CCNC(=O)C2CCN(S(=O)(=O)c3ccc4c(ccn4C)c3)CC2)cc1 -16.2%
CCOc1ccc(NC(=O)c2c(C)oc3nc(C)nc(N4CCOCC4)c23)cc1 -2.95%
Cc1ccc(CNC(=O)CSc2nc3ccccc3nc2Cc2ccc(C)cc2)cc1 -10.7%
COc1ccc(NC(=O)CSc2nc(C)cc(C)c2C(=O)Nc2ccccc2OC)cc1 -11.7%
COc1ccc(S(=O)(=O)NCC(c2ccco2)S(=O)(=O)c2cccs2)cc1F (stereo unspecified) -13.6%
COC(=O)c1cc(S(=O)(=O)NCC2CCN(Cc3cccc(F)c3)CC2)cn1C -21.2%
Cn1c(=O)c2c(-c3ccc(Cl)cc3)n(CCc3ccccc3)cc2n(C)c1=O 2.22%
Cc1ccc2nc(Cl)c3cc(C(=O)N4CCCCC4)sc3c2c1 -8.37%
CN(C(=O)c1c(O)c2ccccc2n(C)c1=O)c1ccccc1 -14.6%
OCc1ccccn1 -13.3%
Cc1cc(C)c(Cn2c(=O)n(CCCC(=O)NCc3ccc4c(c3)OCO4)c(=O)c3sccc32)c(C)c1 -15.2%
CNC(=O)C1CCC(Cn2c(=O)c3sccc3n(CC(=O)N3CCC(C)CC3)c2=O)CC1 (stereo unspecified) -10.9%
Cc1ccc(-n2ncc(C(=O)NCc3ccco3)c2C2CCN(C(=O)OC(C)(C)C)CC2)cc1 -8.54%
CCc1ccc(C(=O)CC2(O)C(=O)N(CCc3ccccc3)c3ccc(Cl)cc32)cc1 (stereo unspecified) 4%
Cn1c(=O)c2c(nc(SCC(=O)Nc3ccc(F)c(F)c3)n2Cc2ccccc2F)n(C)c1=O 1.2%
Cn1nnc2c(NCc3c(F)cccc3F)ncnc21 -19.3%
COc1ccc(N(C(=O)Cn2nnc3ccccc32)C(C(=O)NCc2ccccc2)c2ccc(F)cc2)cc1 (stereo unspecified) -6.14%
COc1ccc(CCNC(=O)c2cc(=O)c3cc(C)c(C)cc3o2)cc1OC -16.8%
COc1ccc(N2CCN(Cc3nc4c(c(=O)[nH]c(=O)n4C)n3Cc3ccccc3F)CC2)cc1 -0.383%
O=C(COCc1cc(-c2ccc3c(c2)OCO3)on1)Nc1cc(Cl)ccc1O -5.21%
COc1ccc(-c2noc(CNC(=O)COc3cccc(C)c3C)n2)cc1 -15.8%
O=C(NCCc1ccc(Cl)cc1)C1CCN(S(=O)(=O)c2ccc3[nH]ccc3c2)CC1 -12.3%
COc1ccc(CCNC(=O)C(=O)NCC(c2cccs2)S(=O)(=O)c2ccc(F)cc2)cc1 (stereo unspecified) -12.7%
COc1ccc(-c2nc(CSCC(=O)NCc3ccccc3Cl)c(C)o2)cc1OC -14%
CCOC(=O)c1c(C)oc2nc(C)nc(NCCCN3CCN(c4cc(C)ccc4C)CC3)c12 -13.7%
CC(C)c1ccc(Nc2c(-c3ccccn3)nc3ccccn23)cc1 -11.1%
Cc1ccc(CCNC(=O)c2ccc(Nc3nc4ccccc4n4nnnc34)cc2)cc1 -8.29%
CCCCCN1C(C(=O)c2ccccc2)=C(OC(=O)CC)c2ccccc2S1(=O)=O -19.9%
COc1cc(OC)c(NC(=O)CCc2c(C)nc3c4c(C)cc(C)nc4nn3c2C)cc1Cl -13.8%
FC(F)(F)c1cccc(Nc2c3c(nc4ccc(Cl)cc24)CCC3)c1 -20.3%
CC(NC(=O)c1ccc2c(c1)sc1nc(-c3ccc(F)cc3)cn12)C12CC3CC(CC(C3)C1)C2 (stereo unspecified) -10.6%
COc1cc(NC(=O)C2CCN(S(=O)(=O)c3c(C)noc3/C=C/c3ccccc3F)CC2)cc(OC)c1OC -7.49%
CC1Cn2c(C(=O)NCc3ccccc3Cl)cc3cccc(c32)S1 (stereo unspecified) -16.2%
COc1ccc(NC(=O)CCn2cnc3onc(-c4ccc(F)cc4)c3c2=O)cc1OC -25.8%
Cc1cccc(NC(=O)c2cc3c(=O)n(Cc4cccnc4)ccc3nc2C)c1 -16.2%
CCC(Sc1nc2n[nH]c(C)c2c(=N)n1-c1ccccc1Cl)C(=O)N(CC)CC (stereo unspecified) -27%
N#Cc1cc2c(=O)n3ccccc3nc2n(-c2nnc(SCc3ccccc3Cl)s2)c1=O -9.4%
CCN(CCCNC(=O)Cn1ncc2c([nH]c3ccc(C)cc32)c1=O)c1ccccc1 0.0774%
COc1ccc(OC(=O)c2nc(SCc3ccccc3C)ncc2Cl)cc1 -18.8%
COc1ccnc(CS(=O)c2nc3ccc(OC(F)F)cc3[nH]2)c1OC (stereo unspecified) 6.85%
Cc1ccccc1OCC(=O)Nc1ccccc1OCc1cc(=O)n2ccccc2n1 -15.1%
CCOC(=O)Cn1c(=O)n(CC2CCCO2)c2nc(-c3cc(OC)ccc3OC)nc(C(N)=O)c21 (stereo unspecified) -7.23%
COc1ccc(CCNC(=O)CCc2c(C)nc3cc(-c4cccc(F)c4)nn3c2C)cc1OC 2.57%
Cc1ccc(S(=O)(=O)NCCc2nnc3ccc(SCC(=O)Nc4ccc(F)cc4F)nn23)cc1 -12.8%
CCCOc1ccc(C(=O)N(Cc2ccco2)Cc2ccco2)cc1 -8.59%
O=C(NCC(c1cccs1)S(=O)(=O)c1cccs1)c1c(F)cccc1F (stereo unspecified) -10.5%
CC(C)c1nn2c(=O)cc(COC(=O)c3ccc(NC(=O)c4cccs4)cc3)nc2s1 -5.95%
COc1ccccc1-n1c(=O)n(C)c2c(C(N)=O)nc(-c3cccc(OC)c3OC)nc21 -6.72%
Cc1ccc(CCNC(=O)CCCc2nnc3n(C)c(=O)c4sccc4n23)cc1 -14.1%
COc1ccc(C(=O)Nc2cccc(C(=O)OCc3cc(=O)n4c5c(sc4n3)CCCC5)c2)cc1 -14.9%
COc1cccc(CSc2nc3n(n2)C(CC(C)C)C(C(=O)Nc2ccccc2C)=C(C)N3)c1 (stereo unspecified) -8.46%
Cc1cc(C)c2c(CC(=O)Nc3cc(C(F)(F)F)ccc3Cl)coc2c1 -10.9%
Cc1ccc2nc(NC(=O)c3ccc(S(=O)(=O)N4CCCc5ccccc54)cc3)sc2c1 -3.6%
COCCCn1c(=O)c2sccc2n2c(CCCC(=O)Nc3ccc(F)c(F)c3)nnc12 4.88%
O=C(O)C1(C(=O)O)CCC1.[NH2-].[NH2-].[Pt+2] -2.25%
Cc1ccccc1-c1nc2scc(CCNC(=O)C(=O)Nc3ccc(F)cc3F)n2n1 -11.2%
CN1CCN(C2(CNC(=O)c3ccc([N+](=O)[O-])cc3)CCCCC2)CC1 5.35%
Cc1cc(C)nc(NS(=O)(=O)c2ccc(NC(=O)c3cc(=O)c4ccc(C)c(C)c4o3)cc2)n1 -15.5%
CCN1CCOC(=O)C1CC(=O)Nc1ccc(C)c(Cl)c1 (stereo unspecified) -12%
O=C(C1CCCCC1)N(Cc1cccnc1)c1nc2c(F)cc(F)cc2s1 -20.3%
COc1ccc(OC)c(NC(=O)c2c(NCc3ccc(OC)c(OC)c3)sc3c2CCC(C)C3)c1 (stereo unspecified) -12.4%
COc1ccc(CNC(=O)CCC2N=C3c4ccccc4N=C(SCc4ccc(F)cc4)N3C2=O)cc1 (stereo unspecified) -3.42%
Nc1c(C(=O)Nc2cccc(F)c2)sc2nc(-c3cccs3)ccc12 -10.1%
Cc1ccccc1OCCCCn1c(C2CC(=O)N(c3ccccc3Cl)C2)nc2ccccc21 (stereo unspecified) 2.18%
Nc1c(C(=O)NCCc2ccccc2)nnn1CC(=O)Nc1ccc(Cl)cc1 -12.9%
CCCn1c(CCC(=O)Nc2cccc(C)c2C)nc2cccnc21 -6.11%
COc1cc(NS(=O)(=O)c2ccc3[nH]c4c(c3c2)CCCC4)cc(OC)c1OC 1.51%
C=Cc1ccc(Cn2c(C(=O)O)c(CNCCc3ccccc3)c3ccc(C)cc32)cc1 5.13%
O=C(CSc1nc2c([nH]c3ccccc32)c(=O)n1-c1ccccc1)c1ccc(Cl)cc1 -8.87%
CCOC(=O)C1CCCN(c2c(C(=O)c3ccc(C)cc3)cnc3ccc(OCC)cc23)C1 (stereo unspecified) -17.5%
COc1ccc(CC(=O)Nc2ccc3nc(Nc4cccc(Cl)c4)cc(C)c3c2)cc1 -3.82%
Cc1ccc(Nc2c(-c3ccc(N4CCOCC4)cc3)nc3c(C)cccn23)cc1 -13.7%
Cc1cc(-c2ccc(S(=O)(=O)Nc3cc(Cl)ccc3C)s2)on1 -11%
COc1ccc(CCNC(=O)c2cc3c(-c4ccc(OC)c(OC)c4)nn(C)c3s2)cc1OC -19.8%
COCCn1c(SCC(=O)Nc2cccc(C)c2C)nc2c(oc3ccccc32)c1=O -11.2%
CCOC(=O)c1c(C)[nH]c(CCC(=O)NCc2cccc(OC)c2)c1C -28.7%
Cc1ccc(Cl)cc1N1CCN(C(=O)CCn2c(=O)c3cccn3c3cccnc32)CC1 4.26%
Cc1ccc(Cn2c(CO)cnc2SCc2cccc(F)c2)cc1 -12.5%
Cc1ccc(Cl)cc1N1CCN(C(=O)c2ccc(CS(=O)(=O)c3ccc(Br)cc3)o2)CC1 0.847%
Cc1oc2ncn(C)c(=O)c2c1C(=O)N(Cc1ccccc1)C(C)C -10.7%
Cc1cccc(CC(=O)NC2CC(=O)N(c3ccccc3)C2)c1 (stereo unspecified) 1.47%
O=C(CSc1nc(=O)n(CCN2CCOCC2)c2c1CCC2)Nc1cccc(Cl)c1 -15.6%
COc1ccc(C(CNC(=O)Cc2ccc(Cl)cc2)N2CCOCC2)cc1 (stereo unspecified) -7.35%
O=C(CC(c1cccs1)N1Cc2ccccc2C1=O)Nc1ccc(F)cc1F (stereo unspecified) -20.1%

Source: PubChem BioAssay AID1159614 (National Center for Advancing Translational Sciences (NCATS), 2016)
